Source: patent US20180155451A1
Values joined by “and” are separate entries in the source; they are usually repeats but may differ in a detail not shown here. Equal entries are not always repeated.

Key:
[1] = target: each FcγR; test: SPR (Biacore), relative binding
[2] = target: FcγR other than FcγRIa; test: SPR (Biacore), relative binding
[3] = target: FcγRIIIa extracellular domain with C-terminal His tag (human) (UniProt P08637); test: SPR (Biacore), captured antibody, FcγR as analyte; relative to GpH7-A5/GpH7-B3/GpL16-k0 = 100
UniProt P08637, sequence (P08637 17-208): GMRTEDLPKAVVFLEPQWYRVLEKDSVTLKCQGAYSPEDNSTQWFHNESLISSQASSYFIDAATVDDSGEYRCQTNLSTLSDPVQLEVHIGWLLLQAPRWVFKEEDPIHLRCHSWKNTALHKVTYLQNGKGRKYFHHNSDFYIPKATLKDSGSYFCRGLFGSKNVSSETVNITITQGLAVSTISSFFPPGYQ

[4] = target: FcγRIIb extracellular domain with C-terminal His tag (human) (UniProt P31994); test: as above
UniProt P31994, sequence (P31994 43-217): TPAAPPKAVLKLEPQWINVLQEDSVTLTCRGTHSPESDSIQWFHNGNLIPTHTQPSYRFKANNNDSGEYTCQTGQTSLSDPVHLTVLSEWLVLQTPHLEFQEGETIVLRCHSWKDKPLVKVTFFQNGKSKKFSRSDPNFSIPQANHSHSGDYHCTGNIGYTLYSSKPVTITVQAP

B1: GpH7-A5/GpH7-B12/GpL16-k0 (antibody, human IgG1, kappa)
heavy 1: QVQLVQSGAEVKKPGASVTVSCKASGYTFTDYEMHWIRQPPGEGLEWIGAIDPKTGDTAYSESFQDRVTLTADKSTSTAYMELSSLTSEDTAVYYCTRFYSYTYWGQGTLVTVSS[no letters for human IgG1 constant region with D356K H435R (EU numbers)]
heavy 2: QVQLVQSGAEVKKPGASVTVSCKASGYTFTDYEMHWIRQPPGEGLEWIGAIDPKTGDTAYSESFQDRVTLTADKSTSTAYMELSSLTSEDTAVYYCTRFYSYTYWGQGTLVTVSS[no letters for human IgG1 constant region with P329R K439E (EU numbers)]
light: DIVMTQSPLSLPVTPGEPASISCQASESLVHSNRNTYLHWYLQKPGQSPQLLIYKVSNRFSGVPDRFSGSGSGTDFTLKISRVEAEDVGVYYCSQNTHVPPTFGQGTKVEIERTVAAPSVFIFPPSDEQLKSGTASVVCLLNNFYPREAKVQWKVDNALQSGNSQESVTEQDSKDSTYSLSSTLTLSKADYEKHKVYACEVTHQGLSSPVTKSFNRGEC
- binding activity relative to GpH7-A5/GpH7-B3/GpL16-k0 (fraction of GpH7-A5/GpH7-B3/GpL16-k0) [1]: 0.2 and 0.25

B2: GpH7-A5/GpH7-B13/GpL16-k0 (antibody, human IgG1, kappa)
heavy 1: B1 heavy 1
heavy 2: QVQLVQSGAEVKKPGASVTVSCKASGYTFTDYEMHWIRQPPGEGLEWIGAIDPKTGDTAYSESFQDRVTLTADKSTSTAYMELSSLTSEDTAVYYCTRFYSYTYWGQGTLVTVSS[no letters for human IgG1 constant region with P329K K439E (EU numbers)]
light: B1 light
- binding activity relative to GpH7-A5/GpH7-B3/GpL16-k0 (fraction of GpH7-A5/GpH7-B3/GpL16-k0) [1]: 0.2 and 0.25

B3: GpH7-A5/GpH7-B14/GpL16-k0 (antibody, human IgG1, kappa)
heavy 1: B1 heavy 1
heavy 2: QVQLVQSGAEVKKPGASVTVSCKASGYTFTDYEMHWIRQPPGEGLEWIGAIDPKTGDTAYSESFQDRVTLTADKSTSTAYMELSSLTSEDTAVYYCTRFYSYTYWGQGTLVTVSS[no letters for human IgG1 constant region with P329D K439E (EU numbers)]
light: B1 light
- percent of the binding activity of GpH7-A5/GpH7-B3/GpL16-k0 [2]: > 50%

B4: GpH7-A5/GpH7-B15/GpL16-k0 (antibody, human IgG1, kappa)
heavy 1: B1 heavy 1
heavy 2: QVQLVQSGAEVKKPGASVTVSCKASGYTFTDYEMHWIRQPPGEGLEWIGAIDPKTGDTAYSESFQDRVTLTADKSTSTAYMELSSLTSEDTAVYYCTRFYSYTYWGQGTLVTVSS[no letters for human IgG1 constant region with P329E K439E (EU numbers)]
light: B1 light
- percent of the binding activity of GpH7-A5/GpH7-B3/GpL16-k0 [2]: > 50%

B5: GpH7-A5/GpH7-B3 variant G237_12R/GpL16-k0 (heterodimerized antibody, He Ab) (antibody, human IgG1, kappa)
heavy 1: B1 heavy 1
heavy 2: QVQLVQSGAEVKKPGASVTVSCKASGYTFTDYEMHWIRQPPGEGLEWIGAIDPKTGDTAYSESFQDRVTLTADKSTSTAYMELSSLTSEDTAVYYCTRFYSYTYWGQGTLVTVSS[no letters for human IgG1 constant region with G237R K439E (EU numbers)]
light: B1 light
- He/Con 3a (IIIa binding) (% of HeCon Ab) [3]: 7.4
- He/Con 2b (IIb binding) (% of HeCon Ab) [4]: 9.8
